Variants at the floor of the assay are shown more often than the library holds them.
B1: TPR 5TU (parent)
chain: GGAUCUUCUCGAUCUAACAAAAAAGACAAAUCUGCCACAAAGCUUGAGAGCAUCUUCGGAUGCAGAGGCGGCAGCCUUCGGUGGCGCGAUAGCGCCAACGUUCUCAACUAUGACACGCAAAACGCGUGCUCCGUUGAAUGGAGUUUAUCAUG

Variants of: B1
Experiment: polymerase ribozyme fitness, log enrichment relative to wild type (log ratio); higher = more active; in vitro selection for triplet polymerase activity
Summary of the method: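 Fitness measures genotype enrichment against wild-type enrichment on a logarithmic scale, with inverse-variance-weighted averaging of replicates. The logarithm is base 2, and genotypes were kept only with ≥10 input reads and ≥1 read per output in Illumina sequencing. The sequenced libraries came from one triplicate in vitro selection round, including frozen incubation at −7 °C, of PCR-built, transcribed mutant libraries of each subunit of a heterodimeric triplet polymerase ribozyme.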

| Variant | polymerase ribozyme fitness (log ratio) |
| --- | --- |
| G50U C54U C93A G136U | -4.07 |
| G50A C57U A73G G84U U104G | ≤ -4.2 |
| C51A C54G G59C G84A C116G | -3.63 |
| C51G G71A C72U U78G U82C G86A C99U U144G | ≤ -4.2 |
| G50A C79U A138G | ≤ -4.2 |
| C51A C95U A97U | -2.64 |
| G50A U53G C99U U111G A120U | ≤ -4.2 |
| G50C G92U C131A A147C | ≤ -4.2 |
| G50A C76G | ≤ -4.2 |
| C51G G58U C93G C123U | ≤ -4.2 |
| G50U C54U C87A G141A A142C | ≤ -4.2 |
| C51G A91U U104G | ≤ -4.2 |
| G50C C123U | -2.4 |
| C51A U55A A64C A106C A137U | ≤ -4.2 |
| G50U C51U A73U C96U C116G | ≤ -4.2 |
| G50U A66G | ≤ -4.2 |
| G50A U53A C85G | ≤ -4.2 |
| G50A G80C C87A G100C G152A | ≤ -4.2 |
| G50C C51U U109A U134C | ≤ -4.2 |
| G50A C57A C85A A91C A98C U146C | ≤ -4.2 |
| G50C C51G G71U G92A G128C U151A | ≤ -4.2 |
| G50C G86A | ≤ -4.2 |
| G50U C75A C95A U109C A122U G126A G136U | ≤ -4.2 |
| G50C C76A G86A A97G C99U A150G | ≤ -4.2 |

| Variant | polymerase ribozyme fitness (log ratio) |
| --- | --- |
| G50C A66G C96U U146G | ≤ -4.2 |
| C51G G81C C93A A106U | ≤ -4.2 |
| G50A G58C G83A A89G G117A | ≤ -4.2 |
| G50C U61A A64G G100A C108U G124A G133C | ≤ -4.2 |
| G50A C51G G83U G84A G141U | ≤ -4.2 |
| G50A G92C A97G C108G A120G U134G | ≤ -4.2 |
| G50U G58C U61A G70A U90G C95U C99A U101G | ≤ -4.2 |
| C51G G70A G92U C99G G126A | ≤ -4.2 |
| G50C C93A C103G A113G A115U G140C | ≤ -4.2 |
| C51G G88A | ≤ -4.2 |
| G50U G67A C76U G84C A98G C99U G141A | ≤ -4.2 |
| C51G C72A G83C G136A G141A | ≤ -4.2 |
| G50C C75U C85U U104G U151A | ≤ -4.2 |
| C51A G80U | ≤ -4.2 |
| G50C A60G | -2.31 |
| G50C C72U U90G C95G | ≤ -4.2 |
| C51G C79U C87U A115G | ≤ -4.2 |
| C51G G94U U148G | ≤ -4.2 |
| G50A G62A C75U A97C C105G | ≤ -4.2 |
| G50A A52U C76G | ≤ -4.2 |
| G50U A60U C75U | ≤ -4.2 |
| G50A C54U U56A G70A C87G U90A C95G U109G C114G G141U | ≤ -4.2 |
| G50A A73U U77G A91U C96U | ≤ -4.2 |
| G50C U55G G83U C99A C108G C149U | ≤ -4.2 |

| Variant | polymerase ribozyme fitness (log ratio) |
| --- | --- |
| G50U C57A U78C G80U G94A U109C | ≤ -4.2 |
| C51A C57U G68U G92C A150U | ≤ -4.2 |
| C51G A91G U101G A147C | ≤ -4.2 |
| G50C U56A G92U | ≤ -4.2 |
| G50A G67C G80U A91U C95U C125G G133C U148A | ≤ -4.2 |
| C51G G65C G94C | ≤ -4.2 |
| G50C C95A | -2.7 |
| G50C G74C A106G A107G U134A | ≤ -4.2 |
| G50C G88U C93A | ≤ -4.2 |
| G50C A97U U101C C105G C125A G141U | ≤ -4.2 |
| G50A U55G C87U | -1.24 |
| G50C A91U | ≤ -4.2 |
| G50C G83A G88A A98G C149A | ≤ -4.2 |
| C51A C69U C75U C87G C93G U139A | ≤ -4.2 |
| G50U U56A G88U C93G | ≤ -4.2 |
| C51A C87U A106C U145C | ≤ -4.2 |
| G50U G81A C96G A142U | -2.59 |
| G50C C76A C96A C132U G140U U151A | ≤ -4.2 |
| G50C A64U C93G U111G C116U | ≤ -4.2 |
| G50A C54A A66C G86A C105U A110U G133U U139G G152A | ≤ -4.2 |
| G50C G68A C87U | ≤ -4.2 |
| G50A C75G A120G U134A A138G U148A | ≤ -4.2 |
| G50C U78G G86A C123U | ≤ -4.2 |
| G50C G59U C118U | -2.35 |

| Variant | polymerase ribozyme fitness (log ratio) |
| --- | --- |
| C51G A64G A66G | ≤ -4.2 |
| G50A G67A G74A C96G | ≤ -4.2 |
| G50A C54G C87A G140A | ≤ -4.2 |
| G50U C69G G80U A120U U139C G141C | ≤ -4.2 |
| G50A G83A C87A C93G G100U C132A | ≤ -4.2 |
| C51G G59A G86A C105A A137U G141C A142C | ≤ -4.2 |
| G50C C87U A122U | -3.11 |
| G50C C75A G80C | ≤ -4.2 |
| G50A U55A | -1.34 |
| G50U A91G | -2.52 |
| G50A C108A G124U U148G | ≤ -4.2 |
| G50C U55C C96G C105G G124A U135A | ≤ -4.2 |
| G50A A73U C87A U144A | ≤ -4.2 |
| C51G G136U U144G | -2.56 |
| G50C C72U G86C U135G | ≤ -4.2 |
| C51A C69A | ≤ -4.2 |
| C51A U61A C95U | -2.06 |
| G50C C72U A91G C118A A142U | ≤ -4.2 |
| G50C G67C C96G G133A | ≤ -4.2 |
| C51A A52G C87G | ≤ -4.2 |
| G50U U55A G126U | -0.316 |
| G50A A52U C85A C87A G88U A91G G140A | ≤ -4.2 |
| G50A U77G G86A A107U G112U | ≤ -4.2 |
| G50A A120G C132G | ≤ -4.2 |

| Variant | polymerase ribozyme fitness (log ratio) |
| --- | --- |
| G50C U56A C69G G81U G143A | ≤ -4.2 |
| G50C G112C U127C | ≤ -4.2 |
| G50U U127A G133U | ≤ -4.2 |
| G50A U77C G92U C125U U151A | ≤ -4.2 |
| C51G G80A G84U G140C | ≤ -4.2 |
| G50U A52G C85A U109A U148G | ≤ -4.2 |
| G50A U82G C85U U111G | ≤ -4.2 |
| G50A C85A | -3.59 |
| G50A U56C G59U G68A U104G A110U G126U | ≤ -4.2 |
| G50C A73G C76A G143A A150G | ≤ -4.2 |
| C51A C54A G62C G70A G81A G140U | ≤ -4.2 |
| G50A A52C C75G U90G C93U A138C | ≤ -4.2 |
| G50C C79A G92C C96A A150G | ≤ -4.2 |
| G50C G84U U135A | ≤ -4.2 |
| C51A U55A G83A C85U | ≤ -4.2 |
| G50A C85U U90G C105A G141U | ≤ -4.2 |
| G50A C54U G80A U82G G88A G92A C93G U145A | ≤ -4.2 |
| C51A C54U G70A U111A A119C C149A | ≤ -4.2 |
| C51A C69U G71A G80U C114U G152U | ≤ -4.2 |
| G50A C76G C96G C99A A110U A137G | ≤ -4.2 |
| G50C U56A C87G G100A U101A U135C | ≤ -4.2 |
| G50A C79U G80U U139C | ≤ -4.2 |
| C51A C54U C85G C96U U102A C125G | ≤ -4.2 |
| G50A C93U U102A A122C A138G G152U | ≤ -4.2 |

| Variant | polymerase ribozyme fitness (log ratio) |
| --- | --- |
| C51G G62U G92A C96A | ≤ -4.2 |
| G50A C87U G128U U130A A138G | ≤ -4.2 |
| G50C A52G A60U U102A A119U | ≤ -4.2 |
| G50U C87A | ≤ -4.2 |
| G50C U78G C93A C116U C125U | ≤ -4.2 |
| G50C C87A C129U G140A | ≤ -4.2 |
| G50U C105U | 0.638 |
| G50A A66G C75G A91C C125G A138C | ≤ -4.2 |
| G50C C79A U90G U148G | ≤ -4.2 |
| G50A C79U | ≤ -4.2 |
| C51G A52U U55G G83A | ≤ -4.2 |
| G50A U55G A97G U102G | -3.43 |
| G50A C54U U77C G86A A91U | ≤ -4.2 |
| G50C C54G C85A A97C U101C C118U | ≤ -4.2 |
| C51A A52G G68A A142C U144A | ≤ -4.2 |
| G50C G59U C87U C116A G140U | ≤ -4.2 |
| G50U A52G C54A A60U G86A G92A U146A | ≤ -4.2 |
| G50U G74A C85U | -3.88 |
| G50U C57A C76A A122U C131G | ≤ -4.2 |
| G50C G62A G65A U77G U82G C114U C123G G141A U144C | ≤ -4.2 |
| G50C G71U A97U | ≤ -4.2 |
| C51G C85U C95A A98C C99G C105A A115G | ≤ -4.2 |
| G50C U55A A91U C93G | ≤ -4.2 |
| G50A U55A U78A G84C | ≤ -4.2 |

| Variant | polymerase ribozyme fitness (log ratio) |
| --- | --- |
| C51A G86A C87U | ≤ -4.2 |
| G50U G88A | ≤ -4.2 |
| G50U G88C | ≤ -4.2 |
| G50C U53A U56A C76U U78G C87G | ≤ -4.2 |
| G50C A52C C96G A97U A147U | ≤ -4.2 |
| G50A C95A G136A U139C | ≤ -4.2 |
| G50C C85U C129G | ≤ -4.2 |
| G50A U56G G80U C132G | ≤ -4.2 |
| G50A C75U C87U C103G A119C | ≤ -4.2 |
| G50A G94U | -3.07 |
| G50C C72U G83A A91U G124U U146A | ≤ -4.2 |
| G50C C63U C75A C76U C95U | ≤ -4.2 |
| G50A C93A A122G | ≤ -4.2 |
| G50C A64C G74U C93G | ≤ -4.2 |
| G50C C76A C85U A91G U146G | ≤ -4.2 |
| G50U C87U C114A | -3.78 |
| C51G C69G C85U | ≤ -4.2 |
| C51G C93A A110U U134C U146G | ≤ -4.2 |
| G50U G88U U148G | ≤ -4.2 |
| C51A C63A U82A | -0.419 |
| G50A G140C | ≤ -4.2 |
| G50U U56A A91G C116U | -2.81 |
| G50U A60C G74A G80U A119U | ≤ -4.2 |
